± gives the standard error. Variants at the background level are over-represented here.
B1: glmS ribozyme (parent)
chain: AUAAAAGCGCCAGAACUACAGAAAUGUAGUUGACGAGGAGGAGGUUUAUCGAAUUUUCGGCGGAUGCCUCCAAA

What was measured:
Conditions in all cases: with glucosamine-6-phosphate
[1] = variants of: B1; test: self-cleavage kobs at 640 uM GlcN6P; higher = faster cleavage; RNA array
Summary of the method: (§1)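 A hybridised Cy3 probe tracked barcoded ribozyme variants, transcribed in situ by E. coli RNA polymerase on sequenced MiSeq chips, at 37 °C. The variants received 40 μM to 10 mM glucosamine-6-phosphate in HEPES/KCl/Mg(OAc)2 buffer. kobs came from decay fits and kcat and KM from weighted Michaelis–Menten fits.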

[2] = variants of: B1; test: self-cleavage kobs at 160 uM GlcN6P; higher = faster cleavage; RNA array
Summary of the method: as §1

[3] = variants of: B1; test: self-cleavage kobs at 2500 uM GlcN6P; higher = faster cleavage; RNA array
Summary of the method: as §1

[4] = variants of: B1; test: self-cleavage kobs at 10000 uM GlcN6P; higher = faster cleavage; RNA array
Summary of the method: as §1

Variant	self-cleavage kobs at 640 uM GlcN6P [1] [s⁻¹]	self-cleavage kobs at 160 uM GlcN6P [2] [s⁻¹]	self-cleavage kobs at 2500 uM GlcN6P [3] [s⁻¹]	self-cleavage kobs at 10000 uM GlcN6P [4] [s⁻¹]
C8U G60U C68U	< 1e-05	< 1e-05	< 1e-05	< 1e-05
C8U U31G G40U G60U	< 1e-05	–	< 1e-05	< 1e-05
C8U U31G G51C C58U G66C	< 1e-05	–	< 1e-05	–
C8U U45A C50G	< 1e-05	–	< 1e-05	–
G9A A12G C34G A39U G41C	< 1e-05	–	–	–
G9A A36C G41U A64G C70U	< 1e-05	< 1e-05	< 1e-05	< 1e-05
G9A A39U	< 1e-05	< 1e-05	–	–
G9A C10G G44A C70U	< 1e-05	–	< 1e-05	–
G9A G32U A48C C50U U54C	< 1e-05	–	< 1e-05	–
G9A G60A C68G	< 1e-05	–	–	–
G9A G66C	< 1e-05	< 1e-05	< 1e-05	–
G9A U31A G62A	< 1e-05	< 1e-05	< 1e-05	–
G9A U45C A53U G60C	< 1e-05	–	–	–
G9A U49G U69C	< 1e-05	–	< 1e-05	–
G9C A15C G32U G40C G66C	< 1e-05	–	–	–
G9C A15G	< 1e-05	< 1e-05	< 1e-05	< 1e-05
G9C A36C	< 1e-05	< 1e-05	< 1e-05	< 1e-05
G9C A39C	< 1e-05	< 1e-05	< 1e-05	< 1e-05
G9C A42U G63U C68G	< 1e-05	–	< 1e-05	–
G9C C11G A15G G38U	< 1e-05	–	–	–
G9C C11U G13C A36C G44C	< 1e-05	< 1e-05	< 1e-05	–
G9C C16U	< 1e-05	< 1e-05	< 1e-05	< 1e-05
G9C C50G G60C C70A	0.000151 ± 4.9e-05	–	–	–
G9C C50U C70G	< 1e-05	–	–	–

Variant	self-cleavage kobs at 640 uM GlcN6P [1] [s⁻¹]	self-cleavage kobs at 160 uM GlcN6P [2] [s⁻¹]	self-cleavage kobs at 2500 uM GlcN6P [3] [s⁻¹]	self-cleavage kobs at 10000 uM GlcN6P [4] [s⁻¹]
G9C C58U G59C	< 1e-05	< 1e-05	< 1e-05	–
G9C G32U U45G A64G	< 1e-05	–	–	–
G9C G37U A64C	< 1e-05	–	< 1e-05	–
G9C G63U G66A C68A C71A	< 1e-05	–	< 1e-05	–
G9C U46G	< 1e-05	< 1e-05	–	< 1e-05
G9C U47C	< 1e-05	–	< 1e-05	–
G9C U65A C68G	0.000522 ± 0.00017	–	–	6.3e-05 ± 2.2e-05
G9U A15U G62A U65G C67G	< 1e-05	–	< 1e-05	–
G9U A39C U47A U49G U54G	< 1e-05	–	–	–
G9U A42U A48C C50G G63C C67U	< 1e-05	–	–	–
G9U A52U	< 1e-05	< 1e-05	–	–
G9U G32A	< 1e-05	< 1e-05	–	< 1e-05
G9U G32A G62C	< 1e-05	–	< 1e-05	–
G9U G35C	< 1e-05	–	–	< 1e-05
G9U G35C G59U	< 1e-05	–	< 1e-05	–
G9U G38U G51A G60U	< 1e-05	< 1e-05	–	–
G9U G40U U46G G62C	< 1e-05	< 1e-05	–	–
G9U G44A	< 1e-05	< 1e-05	< 1e-05	< 1e-05
G9U G44C	< 1e-05	–	–	–
G9U G51U C71U	< 1e-05	–	–	–
G9U U31A A64G	< 1e-05	< 1e-05	–	–
G9U U46A	< 1e-05	< 1e-05	< 1e-05	< 1e-05
G9U U46G	< 1e-05	< 1e-05	< 1e-05	< 1e-05
G9U U55C G62U	< 1e-05	–	–	–

Variant	self-cleavage kobs at 640 uM GlcN6P [1] [s⁻¹]	self-cleavage kobs at 160 uM GlcN6P [2] [s⁻¹]	self-cleavage kobs at 2500 uM GlcN6P [3] [s⁻¹]	self-cleavage kobs at 10000 uM GlcN6P [4] [s⁻¹]
C10A A12G C16U	< 1e-05	–	< 1e-05	–
C10A A33C G35A U45A	< 1e-05	–	–	–
C10A A36C A42C U65C	< 1e-05	< 1e-05	–	–
C10A A36U G62A	< 1e-05	–	–	–
C10A A48C U56C	< 1e-05	< 1e-05	–	–
C10A G29C U30G U56G	< 1e-05	–	–	–
C10A G32C U54C A64G	< 1e-05	–	< 1e-05	–
C10A G35C	< 1e-05	–	–	< 1e-05
C10A G35U	< 1e-05	–	< 1e-05	–
C10A G43C A64C	< 1e-05	–	< 1e-05	–
C10A G44U A48U U55A	< 1e-05	–	< 1e-05	–
C10A U31G A42U	< 1e-05	< 1e-05	–	–
C10A U45C	< 1e-05	< 1e-05	–	–
C10A U46A U56G	< 1e-05	< 1e-05	< 1e-05	–
C10A U69A	0.00013 ± 1.9e-05	–	3.89e-05 ± 1.5e-05	–
C10G A12U U56G C71U	< 1e-05	–	–	–
C10G A14C G43C G66U C67A	< 1e-05	–	–	–
C10G A15C G35U G37U A52U G63U	< 1e-05	< 1e-05	< 1e-05	–
C10G A15U A36U	< 1e-05	–	–	–
C10G A36G A39C	< 1e-05	< 1e-05	–	–
C10G A64C	< 1e-05	–	–	–
C10G C11A A14G G29C G37U	< 1e-05	< 1e-05	–	–
C10G C16G G44A	< 1e-05	–	–	–
C10G C50A C61U	< 1e-05	–	–	–

Variant	self-cleavage kobs at 640 uM GlcN6P [1] [s⁻¹]	self-cleavage kobs at 160 uM GlcN6P [2] [s⁻¹]	self-cleavage kobs at 2500 uM GlcN6P [3] [s⁻¹]	self-cleavage kobs at 10000 uM GlcN6P [4] [s⁻¹]
C10G G13U A15C	< 1e-05	< 1e-05	–	–
C10G G29A U65G	< 1e-05	–	–	–
C10G G29C	< 1e-05	< 1e-05	–	< 1e-05
C10G G32C	< 1e-05	< 1e-05	–	–
C10G G32U C34U G40U G41C	< 1e-05	< 1e-05	< 1e-05	–
C10G G35A A42C	< 1e-05	–	< 1e-05	–
C10G G35A G60A	< 1e-05	–	–	–
C10G G38C	< 1e-05	< 1e-05	–	< 1e-05
C10G G43U U45G	< 1e-05	< 1e-05	< 1e-05	< 1e-05
C10G G44U C70U	< 1e-05	–	–	–
C10G G51A A64G	< 1e-05	< 1e-05	–	–
C10G U31C A53G	< 1e-05	< 1e-05	< 1e-05	–
C10U A12U G35A U45C U54G U57C A64G	< 1e-05	< 1e-05	< 1e-05	–
C10U A12U G43C C58U	< 1e-05	–	–	–
C10U A39C A42C U69C	< 1e-05	< 1e-05	< 1e-05	–
C10U A52U C67A C68A U69G	8.14e-05 ± 3.2e-05	–	–	–
C10U A53C G66A	< 1e-05	–	–	–
C10U C11A A52U G66C	< 1e-05	–	–	–
C10U C16U G32A C50G	0.000327 ± 0.00015	–	–	–
C10U C34A C70U	< 1e-05	–	< 1e-05	–
C10U G13C G41C A64C	< 1e-05	–	< 1e-05	–
C10U G32A A33C U54C G63U	< 1e-05	–	–	–
C10U G32U G41C G51U C68A	< 1e-05	< 1e-05	< 1e-05	–
C10U G35C G60A	< 1e-05	–	< 1e-05	–

Variant	self-cleavage kobs at 640 uM GlcN6P [1] [s⁻¹]	self-cleavage kobs at 160 uM GlcN6P [2] [s⁻¹]	self-cleavage kobs at 2500 uM GlcN6P [3] [s⁻¹]	self-cleavage kobs at 10000 uM GlcN6P [4] [s⁻¹]
C10U G38U U69A	8.22e-05 ± 2.4e-05	–	–	–
C10U G40A G66U	< 1e-05	–	–	< 1e-05
C10U G59A	< 1e-05	–	< 1e-05	< 1e-05
C10U U30A U47G A53G	< 1e-05	< 1e-05	–	–
C10U U31A C34A	< 1e-05	–	< 1e-05	–
C11A A12C A36U G62U	< 1e-05	–	–	–
C11A A14G A52U G62U	< 1e-05	–	–	–
C11A A15C G29A G44A	< 1e-05	–	< 1e-05	–
C11A A15G C16A G29U	6.91e-05 ± 2.4e-05	–	0.000102 ± 2.4e-05	0.000192 ± 3.5e-05
C11A A33G A48C C67U	< 1e-05	–	< 1e-05	–
C11A A33G G35U	< 1e-05	–	–	–
C11A A33G G62C C70U	< 1e-05	–	–	< 1e-05
C11A A36C U57C	< 1e-05	–	< 1e-05	–
C11A C16A G43A	< 1e-05	–	< 1e-05	–
C11A C50G C61A	0.000272 ± 7.9e-05	–	0.000188 ± 3.7e-05	–
C11A G29C G44A	< 1e-05	–	–	–
C11A G35A G63U A64C	< 1e-05	–	< 1e-05	–
C11A G37C U65G	< 1e-05	–	–	–
C11A G40A U46C U65A	< 1e-05	–	–	–
C11A G51U G60U	< 1e-05	–	–	< 1e-05
